Among all 48,000 compounds or so, about 1,200 (2.5%) were called active. About 2% were inconclusive and are not listed.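 How the source made its calls: active means activation of at least 60% and not above a set upper limit (about 1 call in 100 departs from these limits); inconclusive means activation of 40% to 60%, or above that upper limit; inactive means activation under 40%.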 This is one part of the list.
Target: Probable G-protein coupled receptor 32 (Homo sapiens) (UniProt O75388)
Experiment: qHTS for Agonists of Human Resolvin D1 Receptor DRV1; further: 0% is about no effect
Conditions: CHO-K1 GPR32 beta-arrestin PathHunter luminescence, 90 min; at 76.9 µM; stronger effect = higher value; zero percent set by DMSO-only wells
Summary of the method: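 PathHunter beta-arrestin recruitment in CHO-K1 cells stably expressing ProLink-tagged GPR32. Cells were exposed to compound for 90 min at 37 C, then chemiluminescence was read after 1 h detection at ambient temperature; DMSO served as basal control.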

Chain of UniProt O75388 (O75388 whole entry, looked up): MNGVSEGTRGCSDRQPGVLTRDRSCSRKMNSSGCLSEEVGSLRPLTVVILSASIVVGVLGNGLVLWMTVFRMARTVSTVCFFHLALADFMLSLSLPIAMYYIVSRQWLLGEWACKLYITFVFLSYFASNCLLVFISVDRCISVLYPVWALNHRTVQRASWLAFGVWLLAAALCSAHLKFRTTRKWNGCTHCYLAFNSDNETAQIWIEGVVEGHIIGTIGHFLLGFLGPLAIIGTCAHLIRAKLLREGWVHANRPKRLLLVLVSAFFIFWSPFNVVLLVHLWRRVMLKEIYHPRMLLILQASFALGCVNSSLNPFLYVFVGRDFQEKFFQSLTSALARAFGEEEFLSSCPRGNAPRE

activation, inactive:
COc1ccccc1C1CC(=O)NC(C)=C1C(=O)OC1CCCCCC1 (stereo not drawn) 4.8%, CCOC(=O)c1cc(-c2ccc(OC)cc2)n(CCC(=O)Nc2cccc(C)c2C)c1C -25.6%, CCCCc1nn2c(=O)cc(COC(=O)c3ccc4c(c3)OCO4)nc2s1 -5.23%, COC(=O)c1ccccc1NC(=O)Cn1nnc(-c2ccc(OC)cc2)n1 -0.866%, COc1cc(OC)cc(-n2c(=O)c3ccccc3n(Cc3ccccc3C#N)c2=O)c1 -2.36%, COc1ccccc1C(=O)NCC(c1ccc(N(C)C)cc1)N1CCc2ccccc21 (stereo not drawn) -34.5%, O=C(CCCn1c(=O)[nH]c2ccc(Br)cc2c1=O)N1CCN(c2cccc(Cl)c2)CC1 46.5%, CCOc1ccc(-c2cn3c(n2)sc2cc(C(=O)NCCCN4CCCCC4)ccc23)cc1 -12.5%, CC1=C(C(=O)Nc2ccccc2)C(C(C)C)n2nc(SCc3ccccc3C)nc2N1 (stereo not drawn) -9.76%, CCC(=O)Nc1cc(-c2cn3cccnc3n2)ccc1OC -4.9%, N=C(N)c1ccc(OCCCCCOc2ccc(C(=N)N)cc2)cc1 (tested in a mixture with another compound) -7.87%, CCc1ccc(NC(=O)Cn2nc(C(F)(F)F)c3c2CCCC3)cc1 6.69%, COc1cc(NC(=O)c2ccc(-c3nc(CSc4ccccc4)c(C)o3)cc2)cc(OC)c1 -16.3%, O=C(Cn1ncn2cccc2c1=O)NCc1cccc(Br)c1 -5.26%, COc1ccccc1Cc1nc2ccccc2nc1SCC(=O)Nc1c(C)cccc1C -3.84%, Cc1c(Cl)cccc1NC(=O)Cn1c(=O)cc(C)c2c(C)nn(-c3cccc(F)c3)c21 -11.1%, COc1ccc(NC(=O)c2cc(-c3ccc(F)cc3)no2)cc1OC 1.37%, CCCNC(=O)Cn1nc(-c2ccc(C)cc2)c2cnc3ccc(CC)cc3c21 1.56%, Cc1cc(NC(=O)c2ccco2)cc(-c2nc3ccccc3o2)c1O 27.3%, CN(C)CCN(Cc1ccccc1)S(=O)(=O)c1csc(C(N)=O)c1 -9.96%, CCn1c(C)c(C)c2cc(C(=O)N3CCN(c4ccccc4)CC3)ccc21 -33.3%, CCN(C(=O)CCS(=O)(=O)c1cc2c(cc1C)NC(=O)CO2)c1cccc(C)c1 13.9%, COCCCNC(=O)CCCn1c(=O)c2ccccc2n(CC(=O)Nc2ccc(C)cc2Cl)c1=O -5.26%

Reference: PubChem BioAssay AID1346428 (National Center for Advancing Translational Sciences (NCATS), 2018)
